Laboratory results published in article PMC10783007.
No constants are given. Whether binding was seen depends on the method and setting. In cells and extracts the contact can be indirect. Some entries that bind do so weakly or less than the wild type. For part of these data: Sequences can lack the tags named with a protein.

Protein sequences, listed by entry. Tags and fused reporters are not part of them.
UniProt Q7Z434: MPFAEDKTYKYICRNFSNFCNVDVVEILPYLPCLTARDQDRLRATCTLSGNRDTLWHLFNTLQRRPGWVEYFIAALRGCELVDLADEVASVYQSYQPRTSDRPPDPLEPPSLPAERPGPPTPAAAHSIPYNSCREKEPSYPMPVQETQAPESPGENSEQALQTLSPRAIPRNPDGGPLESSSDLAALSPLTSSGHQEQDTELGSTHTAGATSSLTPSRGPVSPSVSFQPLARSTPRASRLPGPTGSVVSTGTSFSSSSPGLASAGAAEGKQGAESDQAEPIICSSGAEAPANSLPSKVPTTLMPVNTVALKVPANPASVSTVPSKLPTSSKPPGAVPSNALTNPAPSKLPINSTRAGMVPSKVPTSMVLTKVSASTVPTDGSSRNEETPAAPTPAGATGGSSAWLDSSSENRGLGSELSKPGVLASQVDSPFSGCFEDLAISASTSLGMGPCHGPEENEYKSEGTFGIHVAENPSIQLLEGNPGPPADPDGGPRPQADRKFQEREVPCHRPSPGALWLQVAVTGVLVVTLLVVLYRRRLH

What was measured:
[1] = biological target: T1, retinoic acid-inducible gene-I protein (RIG-I), endogenous (human (endogenous in HepG2)) (UniProt O95786); assay: co-IP; HepG2 lysate; IP with anti-RIG-I or IgG antibodies; endogenous RIG-I and USP15 detected by WB
T1 sequence: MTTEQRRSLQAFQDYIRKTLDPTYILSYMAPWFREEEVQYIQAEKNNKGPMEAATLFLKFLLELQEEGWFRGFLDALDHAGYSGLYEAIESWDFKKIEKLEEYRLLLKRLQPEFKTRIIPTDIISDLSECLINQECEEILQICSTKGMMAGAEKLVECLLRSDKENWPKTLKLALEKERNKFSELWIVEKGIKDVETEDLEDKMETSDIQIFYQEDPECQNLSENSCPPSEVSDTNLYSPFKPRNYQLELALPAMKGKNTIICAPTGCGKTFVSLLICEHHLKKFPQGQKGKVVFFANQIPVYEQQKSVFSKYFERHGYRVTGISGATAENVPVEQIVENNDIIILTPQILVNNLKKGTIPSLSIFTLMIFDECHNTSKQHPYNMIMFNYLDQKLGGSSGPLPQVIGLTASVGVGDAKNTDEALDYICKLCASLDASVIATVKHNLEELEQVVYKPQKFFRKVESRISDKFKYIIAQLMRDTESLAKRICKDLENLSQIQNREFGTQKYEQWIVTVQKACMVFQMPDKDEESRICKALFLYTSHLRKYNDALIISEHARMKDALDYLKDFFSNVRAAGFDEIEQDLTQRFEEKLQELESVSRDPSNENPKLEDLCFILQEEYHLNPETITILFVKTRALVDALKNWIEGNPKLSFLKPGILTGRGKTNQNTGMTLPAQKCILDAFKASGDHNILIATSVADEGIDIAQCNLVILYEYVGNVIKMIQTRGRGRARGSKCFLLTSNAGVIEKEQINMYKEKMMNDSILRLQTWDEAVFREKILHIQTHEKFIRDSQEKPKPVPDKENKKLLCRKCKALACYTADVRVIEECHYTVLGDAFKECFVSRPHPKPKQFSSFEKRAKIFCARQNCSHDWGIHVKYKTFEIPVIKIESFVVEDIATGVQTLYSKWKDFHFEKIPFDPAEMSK

[2] = biological target: T2, Flag-tagged IRF3 (interferon regulatory factor 3) (UniProt Q14653); assay: co-IP; Flag-tagged bait transfected into HepG2 cells for 48 h; whole-cell lysates, IP with anti-Flag or IgG antibodies; endogenous USP15 blotted with anti-USP15
T2 sequence: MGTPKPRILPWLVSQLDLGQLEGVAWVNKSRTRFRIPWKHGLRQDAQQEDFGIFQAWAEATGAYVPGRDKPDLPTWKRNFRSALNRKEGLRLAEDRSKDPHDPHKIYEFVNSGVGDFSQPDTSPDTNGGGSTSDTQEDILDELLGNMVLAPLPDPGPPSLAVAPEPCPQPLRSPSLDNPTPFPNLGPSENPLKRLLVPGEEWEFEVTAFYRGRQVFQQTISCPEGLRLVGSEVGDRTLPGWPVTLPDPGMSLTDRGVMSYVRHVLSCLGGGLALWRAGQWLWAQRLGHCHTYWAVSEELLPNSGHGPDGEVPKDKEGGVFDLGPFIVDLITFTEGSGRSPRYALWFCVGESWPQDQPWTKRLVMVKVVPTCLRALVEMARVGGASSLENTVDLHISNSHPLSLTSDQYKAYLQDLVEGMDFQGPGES

[3] = biological target: T3, Flag-tagged RIG-I (in HepG2) (UniProt O95786); assay: as above
T3 sequence: T1 sequence

[4] = biological target: T4, Flag-tagged MDA5 (melanoma differentiation-associated protein 5) (UniProt Q9BYX4); assay: as above
T4 sequence: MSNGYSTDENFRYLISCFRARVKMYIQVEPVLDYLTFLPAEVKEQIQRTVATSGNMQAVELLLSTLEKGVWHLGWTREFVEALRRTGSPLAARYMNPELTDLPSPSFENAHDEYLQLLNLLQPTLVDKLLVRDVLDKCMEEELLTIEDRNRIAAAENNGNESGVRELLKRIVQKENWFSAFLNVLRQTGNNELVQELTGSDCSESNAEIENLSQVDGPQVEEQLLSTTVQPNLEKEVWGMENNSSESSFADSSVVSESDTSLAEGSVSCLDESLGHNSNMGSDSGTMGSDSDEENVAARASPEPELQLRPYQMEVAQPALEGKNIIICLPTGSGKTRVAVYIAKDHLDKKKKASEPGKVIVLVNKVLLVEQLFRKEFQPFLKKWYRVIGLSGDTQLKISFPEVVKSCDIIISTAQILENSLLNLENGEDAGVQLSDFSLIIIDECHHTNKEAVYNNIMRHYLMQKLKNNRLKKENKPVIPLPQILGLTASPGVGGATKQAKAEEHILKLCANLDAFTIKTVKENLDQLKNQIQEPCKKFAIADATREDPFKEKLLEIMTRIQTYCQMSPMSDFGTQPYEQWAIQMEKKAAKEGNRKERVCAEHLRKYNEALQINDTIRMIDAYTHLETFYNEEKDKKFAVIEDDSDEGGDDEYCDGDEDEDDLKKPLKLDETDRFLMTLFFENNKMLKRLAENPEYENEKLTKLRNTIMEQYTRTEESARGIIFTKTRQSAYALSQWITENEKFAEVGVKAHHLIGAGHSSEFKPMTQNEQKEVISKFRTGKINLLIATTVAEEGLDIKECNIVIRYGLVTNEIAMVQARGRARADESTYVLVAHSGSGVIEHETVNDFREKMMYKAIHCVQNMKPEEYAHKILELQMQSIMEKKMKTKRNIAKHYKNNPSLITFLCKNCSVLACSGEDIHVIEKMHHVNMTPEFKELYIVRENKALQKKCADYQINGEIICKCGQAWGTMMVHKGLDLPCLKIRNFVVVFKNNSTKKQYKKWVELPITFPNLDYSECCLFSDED

[5] = biological target: Flag-tagged MAVS (mitochondrial antiviral-signaling protein) (UniProt Q7Z434); assay: as above
[6] = biological target: T5, Flag-tagged TBK1 (TANK-binding kinase 1), Q9UHD2; assay: as above; details: remark: other sources report otherwise
T5 chain: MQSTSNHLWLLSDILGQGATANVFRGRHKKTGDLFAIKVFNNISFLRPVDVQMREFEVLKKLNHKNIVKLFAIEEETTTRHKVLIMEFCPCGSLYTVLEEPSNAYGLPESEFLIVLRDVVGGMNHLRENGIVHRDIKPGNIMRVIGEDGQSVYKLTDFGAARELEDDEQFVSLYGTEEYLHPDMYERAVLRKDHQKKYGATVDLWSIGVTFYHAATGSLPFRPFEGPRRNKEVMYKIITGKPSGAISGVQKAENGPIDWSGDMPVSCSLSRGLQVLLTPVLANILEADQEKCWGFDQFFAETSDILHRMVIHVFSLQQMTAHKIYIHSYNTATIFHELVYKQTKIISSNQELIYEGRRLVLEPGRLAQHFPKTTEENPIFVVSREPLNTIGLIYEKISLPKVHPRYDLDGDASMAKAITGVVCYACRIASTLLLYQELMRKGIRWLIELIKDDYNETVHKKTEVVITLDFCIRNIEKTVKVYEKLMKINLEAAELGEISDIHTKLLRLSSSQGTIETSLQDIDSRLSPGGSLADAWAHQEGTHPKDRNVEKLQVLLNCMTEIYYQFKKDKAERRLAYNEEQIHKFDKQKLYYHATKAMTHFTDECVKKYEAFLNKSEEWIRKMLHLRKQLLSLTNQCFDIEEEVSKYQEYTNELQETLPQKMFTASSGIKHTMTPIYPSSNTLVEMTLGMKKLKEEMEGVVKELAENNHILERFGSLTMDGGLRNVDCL

B1: USP15 (endogenous) (enzyme, UniProt Q9Y4E8 1-981)
chain: MAEGGAADLDTQRSDIATLLKTSLRKGDTWYLVDSRWFKQWKKYVGFDSWDKYQMGDQNVYPGPIDNSGLLKDGDAQSLKEHLIDELDYILLPTEGWNKLVSWYTLMEGQEPIARKVVEQGMFVKHCKVEVYLTELKLCENGNMNNVVTRRFSKADTIDTIEKEIRKIFSIPDEKETRLWNKYMSNTFEPLNKPDSTIQDAGLYQGQVLVIEQKNEDGTWPRGPSTPKSPGASNFSTLPKISPSSLSNNYNNMNNRNVKNSNYCLPSYTAYKNYDYSEPGRNNEQPGLCGLSNLGNTCFMNSAIQCLSNTPPLTEYFLNDKYQEELNFDNPLGMRGEIAKSYAELIKQMWSGKFSYVTPRAFKTQVGRFAPQFSGYQQQDCQELLAFLLDGLHEDLNRIRKKPYIQLKDADGRPDKVVAEEAWENHLKRNDSIIVDIFHGLFKSTLVCPECAKISVTFDPFCYLTLPLPMKKERTLEVYLVRMDPLTKPMQYKVVVPKIGNILDLCTALSALSGIPADKMIVTDIYNHRFHRIFAMDENLSSIMERDDIYVFEININRTEDTEHVIIPVCLREKFRHSSYTHHTGSSLFGQPFLMAVPRNNTEDKLYNLLLLRMCRYVKISTETEETEGSLHCCKDQNINGNGPNGIHEEGSPSEMETDEPDDESSQDQELPSENENSQSEDSVGGDNDSENGLCTEDTCKGQLTGHKKRLFTFQFNNLGNTDINYIKDDTRHIRFDDRQLRLDERSFLALDWDPDLKKRYFDENAAEDFEKHESVEYKPPKKPFVKLKDCIELFTTKEKLGAEDPWYCPNCKEHQQATKKLDLWSLPPVLVVHLKRFSYSRYMRDKLDTLVDFPINDLDMSEFLINPNAGPCRYNLIAVSNHYGGMGGGHYTAFAKNKDDGKWYYFDDSSVSTASEDQIVSKAAYVLFYQRQDTFSGTGFFPLDRETKGASAATGIPLESDEDSNDNDNDIENENCMHTN
In the case of B1, the binding [1] is reported as “binds”, the binding [2] is reported as “no binding” and the binding [3] is reported as “binds”. For the same binder, the binding [4] was “no binding” and the binding [5] was “no binding”.

B2: USP15 (endogenous), Q9Y4E8 1-981 (enzyme)
chain: B1 chain
In the case of B2, the binding [6] is reported as “no binding”.
